Results from PubChem BioAssay (NCI).
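Five compound concentrations were applied to cells in 96-well plates for 48 hours; endpoints were derived by simple linear interpolation of the resulting dose-response curve. GI50: concentration for 50% inhibition of growth.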 For part of its entries the source gives two or more results. The list is limited to them. There may be further records. Values that stand side by side are repeated measurements across runs, samples, wells, individuals or studies. Records carry a tag for their origin. Letters count within one entry.

What was measured:
Test in all cases: NCI tumour cell line growth inhibition, 48 h
A549 NSCLC = system: A549 NSCLC
HCT-116 colon = system: HCT-116 colon
HT29 colon = system: HT29 colon
IGROV1 ovarian = system: IGROV1 ovarian
UO-31 renal = system: UO-31 renal

## c1ccc(P(CCP(CCP(c2ccccc2)c2ccccc2)c2ccccc2)CCP(c2ccccc2)c2ccccc2)cc1 (stereo not given)
A549 NSCLC
  GI50: > 10 µM [sample A, 1 test] and 784 nM [sample B, 1 test]
HCT-116 colon
  GI50: > 10 µM [sample A, 1 test] and 985 nM [sample B, mean of 2 tests]
HT29 colon
  GI50: > 10 µM [sample A, 1 test] and 787 nM [sample B, mean of 2 tests]
IGROV1 ovarian
  GI50: > 10 µM [sample A, 1 test] and 538 nM [sample B, 1 test]

## OCC1OC(n2cnc3c(=S)nc[nH]c32)C(O)C1O (stereo not given)
UO-31 renal
  GI50: 18.5 µM [sample A, 1 test] and > 2.5 mM [sample B, mean of 8 tests]
